We go through 89 molecules from article PMC4336329 (PLoS ONE, 2015).

The campaign covered roughly 310,000 compounds. About 14,000 (4.5%) showed an effect of 50% or more. The effect is printed as a negative number. Some of the results follow.
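Further: peak tail current of the secondary pulse compared with the same well before compound.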

This assay deals with human ether-à-go-go-related gene (hERG) potassium channel (human, UniProt Q12809). Nature of the assay: primary screen, population patch clamp on CHO cells stably expressing hERG.
human ether-à-go-go-related gene (hERG) potassium channel, sequence (Q12809 whole entry, looked up): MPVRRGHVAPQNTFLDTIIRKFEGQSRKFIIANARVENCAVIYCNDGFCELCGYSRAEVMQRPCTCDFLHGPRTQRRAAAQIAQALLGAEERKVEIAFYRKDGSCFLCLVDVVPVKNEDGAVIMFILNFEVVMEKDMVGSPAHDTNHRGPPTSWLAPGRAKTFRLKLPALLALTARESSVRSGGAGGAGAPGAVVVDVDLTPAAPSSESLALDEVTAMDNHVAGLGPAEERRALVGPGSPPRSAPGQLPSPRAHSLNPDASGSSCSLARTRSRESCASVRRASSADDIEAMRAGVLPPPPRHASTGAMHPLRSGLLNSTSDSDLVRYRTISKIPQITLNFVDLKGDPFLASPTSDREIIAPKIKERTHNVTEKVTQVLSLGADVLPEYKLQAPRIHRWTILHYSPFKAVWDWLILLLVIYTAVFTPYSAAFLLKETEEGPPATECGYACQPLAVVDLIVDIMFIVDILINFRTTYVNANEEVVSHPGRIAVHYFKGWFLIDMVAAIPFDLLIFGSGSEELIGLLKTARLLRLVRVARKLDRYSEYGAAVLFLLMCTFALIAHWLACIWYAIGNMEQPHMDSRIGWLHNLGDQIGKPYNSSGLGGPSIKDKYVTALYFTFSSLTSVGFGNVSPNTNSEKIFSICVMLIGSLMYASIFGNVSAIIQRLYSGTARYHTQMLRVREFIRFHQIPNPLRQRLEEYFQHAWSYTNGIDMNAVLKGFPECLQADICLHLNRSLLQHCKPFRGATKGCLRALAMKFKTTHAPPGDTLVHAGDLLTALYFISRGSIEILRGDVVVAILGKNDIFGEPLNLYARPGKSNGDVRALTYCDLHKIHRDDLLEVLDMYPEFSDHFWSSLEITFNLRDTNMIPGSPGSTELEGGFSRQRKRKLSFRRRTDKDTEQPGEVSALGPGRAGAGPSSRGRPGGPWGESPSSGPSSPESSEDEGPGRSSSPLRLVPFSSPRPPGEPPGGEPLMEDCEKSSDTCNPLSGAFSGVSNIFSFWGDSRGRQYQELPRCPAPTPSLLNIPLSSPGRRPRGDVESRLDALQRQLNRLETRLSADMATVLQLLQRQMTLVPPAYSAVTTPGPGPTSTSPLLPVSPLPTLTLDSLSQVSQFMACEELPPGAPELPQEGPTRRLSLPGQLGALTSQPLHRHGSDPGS
For the molecule `COc1nc(N(C#N)CC(N)=O)nc(N2CCCC2)n1`, the “hERG current change (%, negative = inhibition) at 10uM” value is 8.6%. The same measure for `Cc1c(NC(=O)c2ccc(N3C(=O)C4C5C=CC(C5)C4C3=O)cc2)c(=O)n(-c2ccccc2)n1C` (centres unmarked): 29.3%. For the molecule `O=C(CCCOc1ccc(Cl)cc1Cl)Nc1ncccn1`, the “hERG current change (%, negative = inhibition) at 10uM” value came to 10.6%. As to `Cc1cnc(C(=O)N2CCCC(N3CCN(c4cccc(C(F)(F)F)c4)CC3)C2)cn1` (centres unmarked), the “hERG current change (%, negative = inhibition) at 10uM” value is given as -39.7%. With `CN(C)c1ccc(/C=N/NC(=O)c2ccc3nc[nH]c3c2)cc1` the figure was -8%; with `COc1ccc(OC)c(NC(=O)CN2CCC(NC(=O)c3ccccc3C)CC2)c1`, -12.3%. `CC(CNC(=O)c1ccc(C#N)cc1)NC(=O)c1ccc(C#N)cc1` (centres unmarked): the “hERG current change (%, negative = inhibition) at 10uM” value is recorded as -76.6%. In the case of `CCN(CC)Cc1c(C(=O)N/N=C/c2ccco2)nnn1-c1nonc1N`, the “hERG current change (%, negative = inhibition) at 10uM” value is listed as -14.3%.

On to `Cc1ccc(S(=O)(=O)CCSc2n[nH]c(=O)n2-c2ccccc2)cc1`, for which the “hERG current change (%, negative = inhibition) at 10uM” value worked out at 5.94%. With `COc1ccc(Cl)cc1S(=O)(=O)N1CCC(C(=O)NCC2CCCO2)CC1` (centres unmarked) the figure was -34.1%. Take `COCC(C)NCc1cccc([N+](=O)[O-])c1.O=C(O)C(=O)O` (centres unmarked): the “hERG current change (%, negative = inhibition) at 10uM” value is -21%. As for `Cc1ccc(CN2CCNC(=O)C2CC(=O)N2CCN(c3ncccn3)CC2)o1` (centres unmarked), the “hERG current change (%, negative = inhibition) at 10uM” value is reported as 20.4%. Consider `Cc1ccc2c(c1)C1CN(C)CCC1N2C(=O)COc1ccc(S(=O)(=O)N2CCOCC2)cc1` (centres unmarked), for which the “hERG current change (%, negative = inhibition) at 10uM” value was -15.8%.

Regarding `CCCC#CCN1CCN(C23CC4CC(CC(C4)C2)C3)CC1`, the “hERG current change (%, negative = inhibition) at 10uM” value is listed as -16.1%. With `COc1ccc(N2CCN(C(=O)c3cc4ccccc4o3)CC2)cc1`, the “hERG current change (%, negative = inhibition) at 10uM” value was found to be 29.9%.

As to `CC1(C)CC(=O)c2sc(NC(=O)C3COc4ccccc4O3)nc2C1` (centres unmarked), the “hERG current change (%, negative = inhibition) at 10uM” value was -13.1%. For `Cn1ccc(-c2ccccc2)c(C#N)c1=O`, the “hERG current change (%, negative = inhibition) at 10uM” value turned out to be 3.34%. The same measure for `COc1ccc(OC)c(NC(=O)C2CCCCC2)c1`: 12.5%. The same measure for `c1ccc2c(c1)CCN(Cc1nnnn1Cc1ccc3c(c1)OCO3)C2`: -3.1%; for `Cc1ccc(Cc2c(C)nc3nc(SCC(=O)N4CCC5(CC4)OCCO5)nn3c2C)cc1`: -35.5%.

`NC1=NC(=O)S/C1=C\c1ccc(O)cc1`: the “hERG current change (%, negative = inhibition) at 10uM” value was found to be 21.4%. Regarding `CCOc1cc(-c2c(C#N)c(=O)[nH]c3c2c(C)nn3-c2ccc(F)cc2)ccc1O`, the “hERG current change (%, negative = inhibition) at 10uM” value amounted to 16.7%.

Consider `COc1ccccc1NC(=O)COC(=O)c1cnccn1`, for which the “hERG current change (%, negative = inhibition) at 10uM” value was 13%. With `CCCCCCCCCCCC(=O)N/N=C/c1ccco1`, the “hERG current change (%, negative = inhibition) at 10uM” value is on record as -11.2%.

As for `COc1ccccc1Oc1coc2cc(O)ccc2c1=O`, the “hERG current change (%, negative = inhibition) at 10uM” value was 7.33%. With `Cc1c(C(=O)O)sc(=S)n1-c1ccccc1` the figure was 2.83%; with `CCOC(=O)N1CCN(c2c(-c3ccc(C(C)C)cc3)c(=O)c2=O)CC1`, -29.5%; with `O=C(NC1CCCC1)C1CCN(C(=O)c2ccc(-c3ccccc3)cc2)CC1`, -24.8%. The same measure for `COc1ccccc1N1CCN(C(=O)c2cc3n(n2)C(C(F)(F)F)CC(c2ccco2)N3)CC1` (centres unmarked): -1.94%; for `O=C(CN1C(=O)NC2(CCCC2)C1=O)OCc1ccc(Cl)c(Cl)c1`: -5.11%.

Regarding `O=C(CCSCCc1ccccn1)Nc1ccc(Br)cc1F`, the “hERG current change (%, negative = inhibition) at 10uM” value is reported as -44%. As to `Cc1nn(-c2ccccc2)c(Cl)c1/C=C1\SC(=S)N(C)C1=O`, the “hERG current change (%, negative = inhibition) at 10uM” value worked out at 24.9%.

On to `CC(C)(C)c1ccc(C(=O)NNC(=O)Cc2cccc3ccccc23)cc1`, for which the “hERG current change (%, negative = inhibition) at 10uM” value was 5.88%. With `Clc1ccc(Nc2ncnc3c2cnn3-c2ccccc2)cc1` the figure was -10.4%. With `O=C1C2CCCCN2C(=O)N1CCCCN1CCN(c2cccc(Cl)c2)CC1` (centres unmarked) the figure was -60.6%; with `COc1ccc2[nH]c(C(=O)N/N=C/c3ccc(O)cc3O)cc2c1`, 17.4%; with `CCCn1c(N)c(N(CCOC)C(=O)c2cc(C)cc(C)c2)c(=O)[nH]c1=O`, 16.4%. With `Cc1ccccc1/C=C/C12NC(=O)CN1c1ccccc1C2(C)C` (centres unmarked) the figure was -6.65%. For `O=C(N/N=C\c1ccc(Cl)cc1)C1=NOC2COC3(CCN(c4ccc([N+](=O)[O-])cc4)CC3)OCC12` (centres unmarked), the “hERG current change (%, negative = inhibition) at 10uM” value is listed as -21.9%. With `CC12CCC(=O)N1C(C(=O)Nc1nc3ccc(F)cc3s1)CS2` (centres unmarked) the figure was -12.4%; with `CC(Sc1nc2ccccc2n1C)C(=O)Nc1ccc(N2CCOCC2)cc1` (centres unmarked), -6.56%. With `COc1ccccc1NC(=S)NC(C)=O` the figure was 49%; with `Cc1ccc(OCCC(=O)Nc2ccc3c(c2)OCCCO3)cc1`, 0.463%.

For `Cc1ccc(S(=O)(=O)N(C)C)cc1NC(=O)COC(=O)/C(=C/c1ccc(F)cc1)c1cccs1`, the “hERG current change (%, negative = inhibition) at 10uM” value is on record as -1.8%. With `NC(=O)CSc1nc2ccccc2nc1SCC(N)=O` the figure was 7.83%; with `COc1ccc(-c2nnc(SCC(=O)NNC(=O)c3ccc(C)cc3)o2)cc1`, -4.63%; with `COc1ccc(OCCCC(=O)Nc2cc(S(=O)(=O)N3CCCCC3)ccc2C)cc1`, -9.42%.

For `COc1ccc(O)c(-c2c(-c3ccc(Cl)cc3)n[nH]c2C)c1`, the “hERG current change (%, negative = inhibition) at 10uM” value is -23.6%. With `COc1ccccc1NC(=O)COc1ccc(CO)cc1Cl` the figure was 4.71%; with `COC(=O)Cn1c(CCS(=O)(=O)c2ccc(C)cc2)nc2ccccc21`, -7.62%. With `O=C(N/N=C\c1ccc(Cl)cc1)c1sccc1-n1cccc1` the figure was -6.64%; with `COc1ccc(NC(=O)c2oc3ccccc3c2C)c(OC)c1`, 4.65%; with `COc1ccccc1N1CCN(C(=O)COc2ccc(S(=O)(=O)NC(C)C)cc2)CC1`, -4.64%.

Take `CC(C)C1CC(CCNCc2ccc3c(c2)OCO3)(c2ccccc2)CCO1.Cl` (centres unmarked): the “hERG current change (%, negative = inhibition) at 10uM” value was -35.3%. For the molecule `Cn1sc(NC(=O)c2ccc(Cl)cc2)nc1=O`, the “hERG current change (%, negative = inhibition) at 10uM” value worked out at 7.93%. On to `O=C(NCCc1ccccc1)c1cc(-c2ccncc2)nc2ccc(S(=O)(=O)N3CCOCC3)cc12`, for which the “hERG current change (%, negative = inhibition) at 10uM” value is on record as 18.6%. The same measure for `CCCCNC(=O)COC(=O)c1c2c(nc3ccccc13)CCC2`: -0.466%. `COc1cc(Cl)ccc1OCc1cc(C(=O)N(C)Cc2cccc3cnccc23)no1`: the “hERG current change (%, negative = inhibition) at 10uM” value is on record as -31.7%. In the case of `O=C(Cn1nnc2ccccc21)OCC(=O)c1ccc(Cl)cc1`, the “hERG current change (%, negative = inhibition) at 10uM” value is -0.178%. With `CS(=O)(=O)c1nc(-c2ccc(Br)cc2)n[nH]1` the figure was 15.3%; with `CCCCn1c(N)c(N(CCC(C)C)C(=O)CSc2nnc3ccccn23)c(=O)[nH]c1=O`, 5.27%; with `CSc1ccccc1OCc1cc(C(=O)NCCC2CCCCO2)no1` (centres unmarked), 9.84%. As to `Cc1c(Cl)cccc1NC(=S)N1CCN(c2ccc([N+](=O)[O-])cn2)CC1`, the “hERG current change (%, negative = inhibition) at 10uM” value stood at 2.33%. With `Cc1onc(-c2c(F)cccc2Cl)c1C(=O)N=C(N)N1CCCC1` the figure was 5.58%; with `COCCNc1c2c(nc3c(-c4ccccc4)c(C)nn13)CCCC2`, -1.34%. Consider `COC(=O)c1cc(CNC(=O)c2sccc2-c2ccccc2)ccc1OC`, for which the “hERG current change (%, negative = inhibition) at 10uM” value is listed as -8.92%. With `COc1cccc2c(=O)n(CC(=O)N3CCc4ccccc43)ccc12` the figure was -11.1%. The same measure for `CCOc1ccc(OCC)c(NC(=O)C2CCN(S(=O)(=O)c3ccc4c(c3)CC(C)N4C(C)=O)CC2)c1` (centres unmarked): -13.1%; for `Cc1ccccc1-c1nc(C(=O)NCC2CCCO2)cc2c1[nH]c1ccccc12` (centres unmarked): -19.2%; for `CCC1=NN(C(=O)CCc2ccccc2)C(O)(C(F)(F)F)C1` (centres unmarked): 12.7%. With `O=C(CSc1nnc(-c2ccncc2)n1Cc1ccco1)Nc1cccc(O)c1`, the “hERG current change (%, negative = inhibition) at 10uM” value was found to be 0.158%. `O=C(NCCCN1CCC(Cc2ccccc2)CC1)C1CC(=O)N(C2CCCC2)C1` (centres unmarked): the “hERG current change (%, negative = inhibition) at 10uM” value is reported as -34.8%.

Take `CCC/C=C1/CCCOC(C(=O)NCCN2CCOCC2)(C(F)(F)F)C1` (centres unmarked): the “hERG current change (%, negative = inhibition) at 10uM” value is -3.23%. The same measure for `NCCc1nnc(SCC(=O)Nc2cccc(Cl)c2)o1`: 21.8%. Take `CCN(C(=O)c1cccs1)c1nnc(-c2ccncc2)s1`: the “hERG current change (%, negative = inhibition) at 10uM” value is recorded as -10.3%. In the case of `CC(=O)N1CC=C2C(C#N)=C(N)C(C#N)(C#N)[C@H](c3ccoc3)[C@H]2C1`, the “hERG current change (%, negative = inhibition) at 10uM” value is -15.6%. The same measure for `O=C(Cc1cccs1)Nc1ccccc1`: 16.9%; for `CC1(C(=O)OCC(=O)Nc2ccc3ccccc3c2)CC1(Cl)Cl.CN(C)C=O` (centres unmarked): 11.2%; for `NCCCC(=O)O`: 19.2%.

For `CC1CCN(C(=O)COC(=O)c2n[nH]c3ccccc23)CC1`, the “hERG current change (%, negative = inhibition) at 10uM” value is listed as 5.22%. With `CCCS(=O)(=O)N1CCC(C(=O)NCCCN(CC)c2cccc(C)c2)CC1`, the “hERG current change (%, negative = inhibition) at 10uM” value is recorded as -4.1%. The same measure for `COc1ccc(S(=O)(=O)N2CCC(C(=O)Nc3ccc(OC)c(OC)c3)CC2)cc1C`: 7.71%. Consider `CCC(=O)Nc1ccc(C(=O)CSc2nnc(-c3ccc(NS(=O)(=O)CC)cc3)o2)cc1OC`, for which the “hERG current change (%, negative = inhibition) at 10uM” value was 5.26%. Regarding `c1ccc2c(c1)CCCN2Cc1nnc2n1CCCCC2`, the “hERG current change (%, negative = inhibition) at 10uM” value amounted to 12%.

Consider `CCCN(CC1CC1)C(=O)COC(=O)c1ccc(CNS(=O)(=O)c2ccc(F)c(Cl)c2)cc1`, for which the “hERG current change (%, negative = inhibition) at 10uM” value is 8.34%.

As for `Cc1cccc(NC(=O)CSCC(=O)N(C)Cc2c(F)cccc2Cl)c1`, the “hERG current change (%, negative = inhibition) at 10uM” value is listed as -14.4%.

Regarding `CCn1c(NCc2c[nH]c3ccccc23)nc2ccccc21`, the “hERG current change (%, negative = inhibition) at 10uM” value is -18%. With `CCN(c1ccccc1)S(=O)(=O)c1ccc(C(=O)Nc2ccncc2)cc1` the figure was -68.7%.

In the case of `COc1cc2c(c(OCC(=O)NC(C)C)c1)C(=O)O[C@@H](C)CCCC(=O)CCCCC2`, the “hERG current change (%, negative = inhibition) at 10uM” value is -3.96%.
